# Measured values published in the supplement of paper PMC8728848.
# Some of the results follow.
# Tests used:
# Assay in all cases: glycan array binding signal (z-score within array); higher = stronger binding
# Conditions in all cases: glycan notation: IUPAC condensed, linker removed
# [1] = target: Gal6S(b1-4)Glc
# How it was run: (§1)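 Glycan array data were curated from 3228 arrays in the Consortium for Functional Glycomics database and kept only where the protein sequence was available. Glycan names were converted to IUPAC-condensed notation, and columns mapping to the same glycan were averaged. The binding signal is a within-array Z-score, averaged across arrays of the same protein sequence at different concentrations or buffers and across linkers. Negative Z-scores can be read as non-binding.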
# [2] = target: Gal6S(b1-4)Glc6S
# How it was run: as §1
# [3] = target: Gal6S(b1-4)GlcNAc
# How it was run: as §1
# [4] = target: Gal6S(b1-4)GlcNAc6S
# How it was run: as §1
# [5] = target: GalNAc(a1-3)Gal
# How it was run: as §1
# [6] = target: GalNAc(a1-3)GalNAc
# How it was run: as §1
# [7] = target: GalNAc(b1-3)Gal
# How it was run: as §1
# [8] = target: GalNAc(b1-3)Gal(a1-4)Gal(b1-4)GlcNAc
# How it was run: as §1
# [9] = target: GalNAc(b1-3)GalNAc
# How it was run: as §1
# [10] = target: GalNAc(b1-4)GlcNAc
# How it was run: as §1
# [11] = target: Glc(a1-4)Glc
# How it was run: as §1
# [12] = target: Glc(a1-6)Glc(a1-6)Glc
# How it was run: as §1
# [13] = target: Glc(b1-4)Glc
# How it was run: as §1
# [14] = target: Glc(b1-6)Glc
# How it was run: as §1
# [15] = target: GlcA(b1-3)Gal
# How it was run: as §1
# [16] = target: GlcA(b1-3)GlcNAc
# How it was run: as §1
# [17] = target: GlcA(b1-6)Gal
# How it was run: as §1
# [18] = target: GlcNAc(a1-3)Gal(b1-4)GlcNAc
# How it was run: as §1
# [19] = target: GlcNAc(a1-6)Gal(b1-4)GlcNAc
# How it was run: as §1
# [20] = target: GlcNAc(b1-2)Gal(b1-3)GalNAc
# How it was run: as §1
# [21] = target: GlcNAc(b1-2)Man(a1-3)[GlcNAc(b1-2)Man(a1-6)]Man(b1-4)GlcNAc(b1-4)GlcNAc
# How it was run: as §1
# [22] = target: GlcNAc(b1-3)Gal
# How it was run: as §1
# [23] = target: GlcNAc(b1-3)Gal(b1-3)GalNAc
# How it was run: as §1
# [24] = target: GlcNAc(b1-3)Gal(b1-4)Glc
# How it was run: as §1
# [25] = target: GlcNAc(b1-3)Gal(b1-4)GlcNAc
# How it was run: as §1
# [26] = target: GlcNAc(b1-3)Gal(b1-4)GlcNAc(b1-3)Gal(b1-4)GlcNAc
# How it was run: as §1
# [27] = target: GlcNAc(b1-3)GalNAc
# How it was run: as §1
# [28] = target: GlcNAc(b1-3)Man
# How it was run: as §1
# [29] = target: GlcNAc(b1-3)[GlcNAc(b1-4)][GlcNAc(b1-6)]GlcNAc
# How it was run: as §1
# [30] = target: GlcNAc(b1-3)[GlcNAc(b1-6)]Gal(b1-4)GlcNAc
# How it was run: as §1
# [31] = target: GlcNAc(b1-3)[GlcNAc(b1-6)]GalNAc
# How it was run: as §1
# [32] = target: GlcNAc(b1-4)Gal(b1-4)GlcNAc
# How it was run: as §1
# [33] = target: GlcNAc(b1-4)GlcNAc
# How it was run: as §1
# [34] = target: GlcNAc(b1-4)GlcNAc(b1-4)GlcNAc
# How it was run: as §1
# [35] = target: GlcNAc(b1-4)GlcNAc(b1-4)GlcNAc(b1-4)GlcNAc(b1-4)GlcNAc
# How it was run: as §1
# [36] = target: GlcNAc(b1-4)GlcNAc(b1-4)GlcNAc(b1-4)GlcNAc(b1-4)GlcNAc(b1-4)GlcNAc
# How it was run: as §1
# [37] = target: GlcNAc(b1-4)[GlcNAc(b1-6)]GalNAc
# How it was run: as §1
# [38] = target: GlcNAc(b1-6)Gal(b1-4)GlcNAc
# How it was run: as §1
binder,measurement,setting,value
BDCA2 ex-domain (Homo sapiens) (protein) MASHHHHHHIEGRGLNDIFEAQKIEWHESLVPRGSCPTPWTSFQSSCYFISTGMQSWTKSQKNCSVMGADLVVINTREEQDFIIQNLKRNSSYFLGLSDPGGRRHWQWVDQTPYNENVTFWHSGEPNNLDERCAIINFRSSEEWGWNDIHCHVPQKSICKMKKIY,glycan array binding signal (z-score),[1],-0.28
same,glycan array binding signal (z-score),[2],-0.203
same,glycan array binding signal (z-score),[3],-0.258
same,glycan array binding signal (z-score),[4],0.081
same,glycan array binding signal (z-score),[5],0.037
same,glycan array binding signal (z-score),[6],-0.212
same,glycan array binding signal (z-score),[7],-0.197
same,glycan array binding signal (z-score),[8],0.776
same,glycan array binding signal (z-score),[9],-0.333
same,glycan array binding signal (z-score),[10],-0.278
same,glycan array binding signal (z-score),[11],-0.018
same,glycan array binding signal (z-score),[12],-0.187
same,glycan array binding signal (z-score),[13],-0.389
same,glycan array binding signal (z-score),[14],-0.341
same,glycan array binding signal (z-score),[15],-0.219
same,glycan array binding signal (z-score),[16],-0.1
same,glycan array binding signal (z-score),[17],-0.124
same,glycan array binding signal (z-score),[18],0.295
same,glycan array binding signal (z-score),[19],-0.184
same,glycan array binding signal (z-score),[20],-0.107
same,glycan array binding signal (z-score),[21],0.168
same,glycan array binding signal (z-score),[22],-0.292
same,glycan array binding signal (z-score),[23],-0.205
same,glycan array binding signal (z-score),[24],-0.489
same,glycan array binding signal (z-score),[25],0.78
same,glycan array binding signal (z-score),[26],-0.287
same,glycan array binding signal (z-score),[27],-0.327
same,glycan array binding signal (z-score),[28],-0.346
same,glycan array binding signal (z-score),[29],-0.282
same,glycan array binding signal (z-score),[30],-0.208
same,glycan array binding signal (z-score),[31],-0.347
same,glycan array binding signal (z-score),[32],0.139
same,glycan array binding signal (z-score),[33],-0.335
same,glycan array binding signal (z-score),[34],-0.131
same,glycan array binding signal (z-score),[35],0.741
same,glycan array binding signal (z-score),[36],0.075
same,glycan array binding signal (z-score),[37],-0.182
same,glycan array binding signal (z-score),[38],0.056
